Some of the results follow. Values were computed here from the reads of four pooled replicates and scatter widely.
These sequences were tested against T1, Pho4 (S. cerevisiae) (UniProt P07270) (assay: relative binding free energy (BET-seq); higher = weaker binding). Details: reference: library average.
T1 sequence: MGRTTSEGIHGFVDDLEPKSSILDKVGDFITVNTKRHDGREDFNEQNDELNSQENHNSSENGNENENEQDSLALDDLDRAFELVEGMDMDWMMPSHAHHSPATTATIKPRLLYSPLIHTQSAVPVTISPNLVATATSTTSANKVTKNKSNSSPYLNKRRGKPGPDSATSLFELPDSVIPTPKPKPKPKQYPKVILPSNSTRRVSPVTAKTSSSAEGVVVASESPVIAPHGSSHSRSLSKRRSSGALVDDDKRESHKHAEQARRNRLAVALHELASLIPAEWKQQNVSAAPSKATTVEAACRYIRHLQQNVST

Sequence | relative binding free energy
GGCAGCACGTGTTATG | 0.06 kcal/mol
GTGCTCACGTGTATTG | 0.17 kcal/mol
ATTATCACGTGGATGT | 0.09 kcal/mol
GTGCGCACGTGGGTGC | -0.18 kcal/mol
AGAGTCACGTGAAATG | 0.52 kcal/mol
GTTTTCACGTGAGCGC | 0.61 kcal/mol
CATAGCACGTGTGGGC | 0.02 kcal/mol
TATGGCACGTGCAGTT | -0.19 kcal/mol
TTCGGCACGTGTGGCT | 0.01 kcal/mol
GCTTACACGTGAGTGT | 0.22 kcal/mol
TTTTGCACGTGTGATG | 0 kcal/mol
GTGGACACGTGAGTTC | 0.24 kcal/mol
AATCGCACGTGAGTTG | 0.17 kcal/mol
TGTAGCACGTGAGGGG | 0.19 kcal/mol
TTACTCACGTGTGGTT | 0.19 kcal/mol
CTGGACACGTGTTGTT | -0.03 kcal/mol
TTGTCCACGTGATATT | 0.17 kcal/mol
GGCTACACGTGTTGAT | 0.18 kcal/mol
TTTATCACGTGGTGCG | 0.08 kcal/mol
TGCGTCACGTGTATGA | 0.04 kcal/mol
GGCTTCACGTGATAGT | 0.39 kcal/mol
GTATACACGTGGTGTT | 0.03 kcal/mol
GGAGTCACGTGGGATA | 0.01 kcal/mol
GGGGGCACGTGATATA | 0.01 kcal/mol
GAAGGCACGTGTAGGT | -0.11 kcal/mol
GTTGTCACGTGGCGGC | 0.08 kcal/mol

Sequence | relative binding free energy
GTACACACGTGTATGG | 0.07 kcal/mol
TTCTACACGTGGGATA | 0 kcal/mol
ATTATCACGTGTCGTG | 0.09 kcal/mol
AAGTGCACGTGACAGG | 0.12 kcal/mol
GGTGCCACGTGTGAGA | 0.09 kcal/mol
GGATCCACGTGGTGAT | 0.07 kcal/mol
TATATCACGTGTAAAG | 0.13 kcal/mol
CTCGTCACGTGGTATT | 0.02 kcal/mol
GGTGCCACGTGGAATG | 0.05 kcal/mol
TGGGTCACGTGGTTAG | 0.08 kcal/mol
TGCTGCACGTGGAAGT | 0.07 kcal/mol
GAGATCACGTGTAGAG | 0.27 kcal/mol
AGCAGCACGTGGTCTT | -0.01 kcal/mol
TAGGCCACGTGTTGTG | -0.17 kcal/mol
GTAGACACGTGTGGGG | 0.19 kcal/mol
CGGATCACGTGTTGTG | 0.15 kcal/mol
AGGGTCACGTGGTGAG | 0.12 kcal/mol
AATTGCACGTGTGCAG | 0.08 kcal/mol
AAAGGCACGTGATGTG | -0.04 kcal/mol
ATTTGCACGTGCGCGG | -0.11 kcal/mol
AGGTACACGTGGATTG | 0.01 kcal/mol
CAGTTCACGTGGGGTA | 0.06 kcal/mol
TATGTCACGTGTTTTC | 0.16 kcal/mol
TTGGACACGTGTACGA | 0.22 kcal/mol
TTCTTCACGTGGGGCA | 0.09 kcal/mol
CTTTTCACGTGTTCTT | 0.41 kcal/mol

Sequence | relative binding free energy
TGGGTCACGTGGGCGT | -0.01 kcal/mol
TGCTGCACGTGTGCTG | 0.01 kcal/mol
ATTATCACGTGTCTGG | 0.19 kcal/mol
TTCTGCACGTGGGTTG | -0.11 kcal/mol
GGGGACACGTGCAGAG | 0.12 kcal/mol
GTGGGCACGTGTAGCA | 0.1 kcal/mol
GCGAGCACGTGATGGG | 0.14 kcal/mol
CAGGGCACGTGATTGT | 0.09 kcal/mol
CTGATCACGTGCTGGG | 0.21 kcal/mol
TGGCTCACGTGGGGCT | 0.08 kcal/mol
TGGTGCACGTGGTGTG | -0.09 kcal/mol
GGTACCACGTGGTTAT | 0.01 kcal/mol
TGGAACACGTGTGTAA | 0.15 kcal/mol
ATTAGCACGTGAGCGG | 0.15 kcal/mol
CGCTACACGTGGGAGG | 0 kcal/mol
AGTGACACGTGGGTGT | -0.12 kcal/mol
ATTGCCACGTGGTGAG | 0.01 kcal/mol
TTGATCACGTGAAGAG | 0.42 kcal/mol
GGTAGCACGTGTATAC | 0.17 kcal/mol
ATGTCCACGTGAAGGT | 0.2 kcal/mol
GTTCTCACGTGTTCTG | 0.34 kcal/mol
ATGCTCACGTGGGTCA | 0.14 kcal/mol
ACGGGCACGTGGGAGG | -0.09 kcal/mol
TTTGCCACGTGGGGAG | -0.25 kcal/mol
CTTAACACGTGGGTAT | -0.02 kcal/mol
CGAGGCACGTGGGGAA | -0.12 kcal/mol

Sequence | relative binding free energy
ATTTTCACGTGTAGCT | 0.15 kcal/mol
GGTTACACGTGTTTCT | 0.07 kcal/mol
GGAGACACGTGTTTGT | 0.02 kcal/mol
AGTTGCACGTGAAAAG | 0.16 kcal/mol
TCTATCACGTGCTGTG | 0.14 kcal/mol
ATTGCCACGTGATGTT | 0.09 kcal/mol
TTATTCACGTGCGTTG | 0.15 kcal/mol
AGAGGCACGTGGTCTA | -0.21 kcal/mol
CGATTCACGTGGGCGG | 0.2 kcal/mol
ATTTTCACGTGGAGTG | 0.26 kcal/mol
TTCTTCACGTGGGAAG | 0.11 kcal/mol
TTAGGCACGTGTTATA | 0.03 kcal/mol
GTGCGCACGTGGGGTA | -0.32 kcal/mol
GGGTACACGTGAAATA | 0.46 kcal/mol
TGGTTCACGTGCTCTA | 0.22 kcal/mol
GGACGCACGTGAGTTT | 0.14 kcal/mol
GCTGGCACGTGGAGGG | -0.22 kcal/mol
GTTTACACGTGAGAAG | 0.23 kcal/mol
GTTGACACGTGATCTG | 0.15 kcal/mol
TGCGTCACGTGGGTGC | -0.01 kcal/mol
GGCAGCACGTGTGGAT | 0.05 kcal/mol
GTACGCACGTGGGGAG | -0.14 kcal/mol
TCTATCACGTGGGAGT | 0.14 kcal/mol
TGGAACACGTGATAGT | 0.23 kcal/mol
ATGTACACGTGAGTAT | 0.25 kcal/mol
AAGGTCACGTGTTTCT | 0.13 kcal/mol

Sequence | relative binding free energy
TTAGTCACGTGTTTCT | 0.03 kcal/mol
GTTTGCACGTGACTAA | 0.3 kcal/mol
AAATGCACGTGTATGT | -0.03 kcal/mol
TAAGGCACGTGAGGGT | 0.04 kcal/mol
CAGGGCACGTGGGATA | -0.14 kcal/mol
GGGTACACGTGTGATG | 0.17 kcal/mol
TGCTACACGTGTGTTG | 0.1 kcal/mol
GGCGTCACGTGGTCTG | 0.05 kcal/mol
TGGATCACGTGCGTTT | 0.05 kcal/mol
TATTTCACGTGTGCGC | 0.21 kcal/mol
AGTCTCACGTGGGATT | 0.21 kcal/mol
TGGGACACGTGTGGGC | 0.09 kcal/mol
CGTCTCACGTGTTGGT | 0.36 kcal/mol
GGGAGCACGTGATTAG | 0.01 kcal/mol
GGTGTCACGTGTGGTG | 0.27 kcal/mol
TAGGGCACGTGTCAGG | -0.08 kcal/mol
AGTAGCACGTGGTAGT | -0.13 kcal/mol
TGGGACACGTGAGTTA | 0.28 kcal/mol
TGTCGCACGTGTTGGT | 0 kcal/mol
GTATTCACGTGGTTTA | 0.26 kcal/mol
GCTTGCACGTGGGCTA | -0.01 kcal/mol
TTTATCACGTGAATTA | 0.36 kcal/mol
CTTTACACGTGGGGTG | -0.06 kcal/mol
TAAGTCACGTGGAGGT | 0.1 kcal/mol
TTCGTCACGTGTAGCG | 0.03 kcal/mol
GTCGGCACGTGTTCGT | 0 kcal/mol

Sequence | relative binding free energy
TATTTCACGTGTGCAT | 0.15 kcal/mol
GATTGCACGTGGTTCT | 0.09 kcal/mol
TGGTCCACGTGTTTTA | 0.05 kcal/mol
ATGGACACGTGAATTT | 0.37 kcal/mol
TGGATCACGTGTCATG | 0.14 kcal/mol
AACGGCACGTGTAATG | 0.12 kcal/mol
ATGTGCACGTGATATT | 0.09 kcal/mol
GATATCACGTGTATGT | 0.04 kcal/mol
TGCGACACGTGAGGAG | 0.26 kcal/mol
CTTTTCACGTGAGTGC | 0.4 kcal/mol
GAGAGCACGTGTTGAG | 0.02 kcal/mol
GTGATCACGTGCGTTT | 0.12 kcal/mol
AAAGGCACGTGTTGAT | -0.15 kcal/mol
TTAAGCACGTGTAGCG | -0.01 kcal/mol
GTTAACACGTGTGATT | 0.08 kcal/mol
CGGCTCACGTGTGGAT | 0.3 kcal/mol
TTGGCCACGTGAAAGG | 0.21 kcal/mol
GATGACACGTGGGGGG | -0.05 kcal/mol
ATTGGCACGTGTTTGT | -0.07 kcal/mol
GAGAACACGTGGTTGG | 0.07 kcal/mol
AATGGCACGTGATTAT | -0.12 kcal/mol
TGGGCCACGTGGGTGT | -0.17 kcal/mol
AGTTTCACGTGTATCT | 0.1 kcal/mol
TGTAGCACGTGGGCTA | -0.3 kcal/mol
ATTGTCACGTGAGCGT | 0.2 kcal/mol
TGAGTCACGTGCGGCG | 0.07 kcal/mol

Sequence | relative binding free energy
TATTTCACGTGGTCAG | 0.25 kcal/mol
GAGCTCACGTGGTCGG | 0.25 kcal/mol
GATTCCACGTGGTGGT | 0.02 kcal/mol
GTTAACACGTGTGAGC | 0.09 kcal/mol
GTGATCACGTGGGATA | 0.05 kcal/mol
GTTAACACGTGGAGAA | 0.23 kcal/mol
ATCGTCACGTGTAGAG | 0.13 kcal/mol
AGCGGCACGTGTGTCT | -0.08 kcal/mol
CAGAGCACGTGTGGGC | 0.1 kcal/mol
TGAGTCACGTGATAAG | 0.24 kcal/mol
GTTAGCACGTGTTTCA | 0.08 kcal/mol
TCAAACACGTGTTGGG | -0.11 kcal/mol
AGTTTCACGTGTTCCT | 0.33 kcal/mol
GGCATCACGTGGTTTT | 0.22 kcal/mol
TTCTTCACGTGGGAAA | 0.19 kcal/mol
TAAATCACGTGTGGGG | 0.19 kcal/mol
ATATACACGTGATTGT | -0.06 kcal/mol
TTAGTCACGTGGAAAG | 0.21 kcal/mol
GAAAGCACGTGGGGGT | -0.19 kcal/mol
ATAAGCACGTGTTGCG | -0.15 kcal/mol
CCGGGCACGTGTGGAG | -0.1 kcal/mol
TAGGTCACGTGAATAT | 0.31 kcal/mol
TTTGGCACGTGGCAGG | -0.12 kcal/mol
TATTTCACGTGGTCGA | 0.12 kcal/mol
TAGAGCACGTGATTGA | 0.03 kcal/mol
CAGGGCACGTGAAGGG | 0.2 kcal/mol

Sequence | relative binding free energy
GTTGGCACGTGCATGT | -0.13 kcal/mol
GTAGGCACGTGGCGCA | -0.17 kcal/mol
TGAAGCACGTGAAGAG | 0.24 kcal/mol
TAGTTCACGTGGGTGC | 0.14 kcal/mol
GTTATCACGTGCAATG | 0.22 kcal/mol
AGGAACACGTGATAGT | 0.17 kcal/mol
GTTGCCACGTGAGTGG | 0.07 kcal/mol
CGTGGCACGTGGGCAT | -0.2 kcal/mol
ATTGGCACGTGGTGAG | -0.09 kcal/mol
CAATTCACGTGGGGGG | -0.01 kcal/mol
GGCGTCACGTGTGGAA | 0.16 kcal/mol
CATTGCACGTGCGTAT | 0.05 kcal/mol
CGTAGCACGTGGAATG | -0.02 kcal/mol
TTTTTCACGTGGGTAA | 0.28 kcal/mol
ATCTGCACGTGTTTTA | -0.01 kcal/mol
TGGCGCACGTGTTTAG | -0.14 kcal/mol
TGGGGCACGTGTGCGG | -0.06 kcal/mol
GTTGTCACGTGTCAAT | 0.16 kcal/mol
GGGGTCACGTGTACAT | 0.08 kcal/mol
GCAAACACGTGGGGGG | -0.12 kcal/mol
CTGTGCACGTGGGGTA | -0.24 kcal/mol
GGGCGCACGTGATTTT | 0.33 kcal/mol
GCTGTCACGTGAGTTT | 0.34 kcal/mol
TAATTCACGTGTAAGG | 0.14 kcal/mol
GTATGCACGTGGTAAG | 0.05 kcal/mol
CATGTCACGTGTTATT | 0.04 kcal/mol

Sequence | relative binding free energy
TGTTCCACGTGTGAGA | 0.2 kcal/mol
TTTTTCACGTGAGTTA | 0.39 kcal/mol
CGTTTCACGTGTAGGT | 0.09 kcal/mol
GGGGGCACGTGGATTC | 0.14 kcal/mol
GAGGGCACGTGGAAGT | 0.01 kcal/mol
CATGTCACGTGGTTGT | 0.04 kcal/mol
GTTTACACGTGCGGTG | 0 kcal/mol
GTAATCACGTGAGTGA | 0.36 kcal/mol
GTAGTCACGTGTTACT | 0.25 kcal/mol
GTGGTCACGTGAGATT | 0.33 kcal/mol
ATGGTCACGTGGAAGG | 0.18 kcal/mol
GTCTTCACGTGAGCGT | 0.41 kcal/mol
TTGTTCACGTGCAAGT | 0.29 kcal/mol
TTGTTCACGTGCGGTC | 0.25 kcal/mol
GGGTTCACGTGGGATT | 0.33 kcal/mol
GGTTTCACGTGGCATT | 0.27 kcal/mol
GGGGTCACGTGGGTCG | 0.05 kcal/mol
ATGTGCACGTGGACAG | -0.06 kcal/mol
TTGACCACGTGTGTGG | 0 kcal/mol
GTTTCCACGTGGTTAG | 0.19 kcal/mol
TTGTACACGTGAGACG | 0.28 kcal/mol
ATAAACACGTGGGTAG | -0.06 kcal/mol
